In all, about 360,000 compounds went through this assay and about 2,600 (0.72%) were called active. The inconclusive results got no clear call from the source; some entries with a clear call stand among them for comparison. The call rests on the fitted dose curve; in most records, active means well fitted inhibition curve with a large enough effect; inconclusive means small, poorly fitted or top-dose-only effect; inactive means no such curve, though single readings can be large or run the other way. Potencies beside an inconclusive call are fits to weak or partial responses and may not hold up.
Assay: Primary qHTS for Inhibitors of ATXN expression; further: nearly all actives have a fitted effect of over 55% in size
Conditions: HEK-293 ATXN2-luciferase reporter, luminescence, 24 h; activity change, negative = inhibition: at 57 µM (top of the series)
Procedure, shortened: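 qHTS (up to 57 uM final) was run with 24 h compound exposure of reporter cells at 37 °C. Each well was multiplexed: SteadyGlo luminescence measured ATXN2-luciferase expression after a fluorogenic Gly-Phe-AFC viability readout (25 uM final).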
On the % scale 0 is the no-effect control and ±100 the full control effect; potency means the concentration at half of the fitted maximal effect; tags describe the fitted curve by direction and shape.

| SMILES | activity change, negative = inhibition | Potency |
| --- | --- | --- |
| CC(=O)N1CCN(c2ccccc2NC(=O)c2cccc3c(Cl)cccc23)CC1 | inactive: 0.256% | – |
| Cc1cc(C)c2c(=O)n(CC(=O)Nc3ccc(Cl)cc3)sc2n1 | inactive: -23.4% | – |
| Cc1cc(Cl)ccc1NC(=S)NCCc1ccc(Cl)cc1 | – | inconclusive: 39.8 µM [inhibitor, single point] |
| CCc1ccc(S(=O)(=O)/N=C2\C=C(Nc3ccc(O)cc3)C(=O)c3ccccc32)cc1 | – | active: 3.55 µM |
| Cc1ccc(C(=O)N/N=C\c2ccc([N+](=O)[O-])o2)cn1 | – | inconclusive: 22.4 µM [inhibitor, partial curve, poor fit] |
| CCCN1Cc2cccc(C(=O)N3CCN(c4ccc(F)cc4)CC3)c2C1=O | – | inconclusive: 28.2 µM [inhibitor, partial curve, poor fit] |
| Cc1cccc2c(N=NC(=O)c3ccc(NS(=O)(=O)c4cccs4)cc3)c(O)[nH]c12 | – | inconclusive: 39.8 µM [inhibitor, single point] |
| O=C(Nc1ccc(F)cc1)c1ccc(-n2cnc3cccnc32)cc1 | inactive: 6% | – |
| Cc1nc(-c2ccc(NC(=O)c3ccco3)cc2)cs1 | – | active: 3.98 µM |
| C/C(=C\C(=O)c1ccc(Cl)cc1)Nc1ccc(Br)cc1 | inactive: 25.3% | – |
| C(#Cc1ccccc1)C[N+]1(CC#Cc2cccc3ccccc23)CCCC1 | – | inconclusive: 28.2 µM [inhibitor, partial curve] |
| CC(C)(C)c1ccc(OCc2ccc(C(=O)N/N=C3\CC4CC=CC34)cc2)cc1 (stereo not given) | – | inconclusive: 33.6 µM [inhibitor, single point] |
| COc1ccc2nc(NC(=O)c3ccc(-n4nc(C)cc4C)cc3)sc2c1 | – | inconclusive: 20 µM [inhibitor, partial curve, poor fit] |
| CC(C)(C)OC(=O)NNc1c2ccccc2nc2ccccc12 | – | inconclusive: 39.8 µM [inhibitor, single point] |
| O=C(Nc1ccccc1)NN(C(=O)CCl)c1ccccc1 | – | inconclusive: 39.8 µM [inhibitor, single point] |
| Cc1ccc(OCC(=O)NNc2c3ccccc3nc3ccccc23)cc1 | – | inconclusive: 39.8 µM [inhibitor, single point] |
| CC(=O)N1CCc2c(sc(NC(=O)c3ccc([N+](=O)[O-])o3)c2C#N)C1 | inactive: -16.1% | – |
| COc1ccc(C(CNC(=O)COc2cc(C)c(Cl)c(C)c2)N2CCCCC2)cc1 (stereo not given) | – | inconclusive: 14.1 µM [inhibitor, partial curve, poor fit] |
| C/C=C/c1ccc(OCCOCCOc2cccc3cccnc23)c(OC)c1 | inactive: -17.5% | – |
| CC1C(=O)N(Cc2cn(Cc3ccco3)nn2)CCS(=O)(=O)N1Cc1ccc(-c2ccc(F)cc2Cl)cc1 (stereo not given) | – | inconclusive: 22.4 µM [inhibitor, partial curve, poor fit] |
| Cc1nc2ccccc2c2oc(C(=O)N3CCc4ccccc4C3)cc12 | – | inconclusive: 31.6 µM [inhibitor, single point] |
| CCCCOC(=O)c1ccc(NC(=O)C2(c3cccs3)CCOCC2)cc1 | – | inconclusive: 31.6 µM [inhibitor, partial curve, poor fit] |

| SMILES | activity change, negative = inhibition | Potency |
| --- | --- | --- |
| COc1ccccc1-c1cc(C(=O)Nc2c(C)nn(Cc3ccc(Cl)cc3)c2C)no1 | – | inconclusive: 8.91 µM [inhibitor, partial curve, poor fit] |
| O=[N+]([O-])c1cccc(-c2c[n+]3c(n2-c2ccccc2)SCC3)c1 | – | inconclusive: 37.7 µM [inhibitor, single point] |
| COc1cc(OC)cc(-c2cc3nc4c(c(N5CCN(c6ncccn6)CC5)n3n2)CCCC4)c1 | inactive: 27.7% | – |
| Cc1nn(-c2ccccc2)c2c1N(CCCC(=O)NCc1ccc(OC(C)C)cc1)C(=O)CS2 | – | inconclusive: 14.1 µM [inhibitor, partial curve] |
| Cc1ccc2c(CC(=O)Nc3ccc(S(=O)(=O)N4CCC(C)CC4)cc3)coc2c1 | – | inconclusive: 39.8 µM [inhibitor, single point] |
| CCCCc1ccc(NC(=O)CSc2nc(=O)n(CCN(CC)CC)c3c2CCC3)cc1 | inactive: -18.7% | – |
| Cn1c(=O)c2c(ncn2CC(=O)OCCCC(=O)c2ccc(Br)cc2)n(C)c1=O | – | inconclusive: 1.41 µM [inhibitor, partial curve, poor fit] |
| O=C(CSc1n[nH]c(=O)n1C1CC1)c1ccc(F)cc1 | inactive: 12.2% | – |
| O=c1cc(-c2ccccc2Cl)oc2c(NS(=O)(=O)c3ccccc3OC(F)(F)F)ccc(O)c12 | – | inconclusive: 39.8 µM [inhibitor, single point] |
| O=C(c1ccc2nc(N3CCOCC3)sc2c1)N1CCN(c2ccc(Cl)cc2)CC1 | – | inconclusive: 28.2 µM [inhibitor, partial curve, poor fit] |
| CNCCCC1Sc2ccccc2Oc2ccccc21 (stereo not given) | – | inconclusive: 12.6 µM [inhibitor, partial curve, poor fit] |
| COCCNC(=O)CN1C(=O)NC(c2ccccc2)(c2ccccc2)C1=O | inactive: -17.4% | – |
| Nc1ccc(N=Nc2ccccc2)c2ccccc12 | inactive: -14.1% | – |
| Cc1ccc2c(Cl)cc(Cl)c(OCC(=O)Nc3cc(S(=O)(=O)N(C)C)ccc3C)c2n1 | – | inconclusive: 22.4 µM [inhibitor, single point] |
| COc1ccc(OC)c(Nc2nc(-c3sc(NC(=O)C(C)(C)C)nc3C)cs2)c1 | – | inconclusive: 17.8 µM [inhibitor, partial curve] |
| Nc1scc2c(C(=O)N/N=C/c3ccc(Cl)cc3)nn(-c3ccccc3)c(=O)c12 | – | inconclusive: 5.01 µM [inhibitor, partial curve, poor fit] |
| O=C(O)CN1C(=O)/C(=C\c2ccccc2OCc2ccc(Cl)cc2Cl)SC1=S | – | inconclusive: 3.55 µM [inhibitor, full curve, poor fit] |
| COc1nc(OC)nc(N2CCC(NC(=O)C(Cc3ccc(C(C)C)cc3)NC(C)=O)CC2)n1 (stereo not given) | – | inconclusive: 17.8 µM [inhibitor, partial curve, poor fit] |
| COc1ccc(NC(=O)c2sc(=O)n(Cc3ccc(F)c(Cl)c3)c2C)cc1OC | – | inconclusive: 0.501 µM [inhibitor, partial curve, poor fit] |
| O=C(N/N=C/c1cc([N+](=O)[O-])ccc1O)c1cccc(N2CCCC2=O)c1 | – | active: 17.8 µM |
| COCc1nnc(NC(=O)c2ccc(S(=O)(=O)N3CCOCC3)cc2)o1 | inactive: -9.68% | – |
| Brc1cccc(-c2nnc(SCc3nc4ccccc4[nH]3)o2)c1 | inactive: -2.88% | – |

| SMILES | activity change, negative = inhibition | Potency |
| --- | --- | --- |
| Cc1ccc(C)c(C(=O)OCC(=O)Nc2cccc(S(=O)(=O)N3CCCCC3)c2)c1 | – | inconclusive: 10 µM [inhibitor, partial curve] |
| CCOC(=O)/C(N=Nc1ccc(Cl)cc1)=C(/O)c1ccc([N+](=O)[O-])cc1 | – | inconclusive: 35.5 µM [inhibitor, single point] |
| CCOC(=O)[C@]12CCC=C1N(Cc1cccc3ccccc13)C(=O)[C@H](CC(=O)NCC13CC4CC(CC(C4)C1)C3)C2 | inactive: -16.5% | – |
| COc1cc2c(cc1OC)C(c1ccc(-c3ccc(Cl)c(Cl)c3)o1)=NCC2 | – | inconclusive: 14.1 µM [inhibitor, partial curve, poor fit] |
| O=C(O)Cc1ccc(NC(=O)c2ccc(Cl)c(Cl)c2)cc1 | – | inconclusive: 14.1 µM [inhibitor, partial curve] |
| COc1ccc(C(NC(C)=O)c2cc(Cl)c3cccnc3c2O)cc1 (stereo not given) | – | active: 4.47 µM |
| C=C1C[C@H]2[C@@H]3C=C(C)C4=CC(=O)CC[C@]4(C)[C@H]3CC[C@]2(C)[C@@]1(OC(C)=O)C(C)=O | – | inactive |
| CCc1ccc(-c2nc(CN3CCCC(C(=O)NCc4ccccc4Cl)C3)c(C)o2)cc1 (stereo not given) | – | inconclusive: 39.8 µM [inhibitor, single point] |
| CC1(c2ccccc2)NC(=O)N(CC(=O)Nc2ccc3c(c2)OCO3)C1=O (stereo not given) | inactive: 5.02% | – |
| CCCCOc1ccc(C(=O)N/N=C/c2ccc(OCCN3CCCCC3)c(OC)c2)cc1 | – | inconclusive: 39.8 µM [inhibitor, single point] |
| CN(C)CCn1c(NC(=O)c2ccc(Cl)cc2)nc2ccccc21 | inactive: 8.58% | – |
| CCCCN(C)c1nc(-c2ccco2)c2c(c1C#N)CC(C)(C)OC2 | – | active: 22.4 µM |
| COc1cccc(/C=N/Nc2cc(N3CCOCC3)ncn2)c1O | – | inconclusive: 14.1 µM [inhibitor, partial curve, poor fit] |
| Cc1cccn2c(=O)c3cc(C(=O)NCc4ccco4)c(=N)n(C4CCCC4)c3nc12 | – | inconclusive: 20 µM [inhibitor, partial curve, poor fit] |
| O=C(Oc1c(CN2CCOCC2)cc(Cl)c2cccnc12)c1ccccc1Cl | – | inconclusive: 9.47 µM [inhibitor, partial curve, poor fit] |
| Cc1cccc(C)c1NC(=S)N(Cc1ccccc1)Cc1cccnc1 | inactive: -8.4% | – |
| COc1ccc2c(c1)C(C)(Cc1ccc(C(=O)c3ccccc3)cc1)C(=O)N2 (stereo not given) | – | inconclusive: 39.8 µM [inhibitor, partial curve, poor fit] |
| Cc1nc2ncnn2c(N2CCN(c3cccc(C(F)(F)F)c3)CC2)c1C | – | inconclusive: 25.1 µM [inhibitor, single point] |
| CC(=O)N1CCc2ccc(S(=O)(=O)N3CCc4ccccc43)cc21 | – | inconclusive: 42.3 µM [inhibitor, single point] |
| COCc1cc(=O)[nH]c(Nc2nc3ccccc3o2)n1 | – | inconclusive: 31.6 µM [inhibitor, single point] |
| CN(c1ccc(OCC(=O)N2CCN(c3ccc(F)cc3)CC2)cc1)S(=O)(=O)c1cccs1 | – | inconclusive: 28.2 µM [inhibitor, single point] |

Reference: PubChem BioAssay AID1745845 (National Center for Advancing Translational Sciences (NCATS), 2022)
